In PubChem BioAssay AID588689 (Southern Research Specialized Biocontainment Screening …, 2011):
Out of some 340,000 compounds screened, about 1,000 (0.29%) were called active. This list was built around the results that the source calls inconclusive (neither active nor inactive); the mix of calls is not that of the screen. No stated cut-off is given here; in the data, inconclusive means inhibition above about 29% without an active follow-up result; inactive means below that.

target: Genome polyprotein (Dengue virus type 2 (strain 16681-PDK53)) (UniProt P29991); assay: Dengue-2 NS5 methyltransferase inhibitors, primary screen, biochemical, confirmation dose response (AID 588689); details: Dengue-2 NS5 methyltransferase capping enzyme assay, at 25 µM, active compounds read high

| Compound | inhibition |
| --- | --- |
| O=C1c2ccccc2-c2onc3c(N4CCN(CCO)CC4)cc(N4CCN(C(=O)c5ccco5)CC4)c1c23 | inconclusive: 195% |
| CN1CC=C2C(C#N)=C(N)C(C#N)(C#N)C(CCc3ccccc3)C2C1 (stereo not given) | inconclusive: 59.2% |
| Cc1c(F)cccc1NS(=O)(=O)c1ccc2c(c1)c(C)cc(=O)n2C | inactive: -4.58% |
| CC1CCCN(Cc2c(O)ccc3c2O/C(=C\c2ccco2)C3=O)C1 (stereo not given) | inconclusive: 34.3% |
| CCCNC(=O)Cn1c(=O)/c(=C/c2ccc(-c3cccc([N+](=O)[O-])c3)o2)s/c1=C\C(=O)C(C)(C)C | inconclusive: 152% |
| CCCCCCc1cc2cc(C(=O)NC)c(=N)oc2cc1O | inconclusive: 41.9% |
| CCC(C)C1=CC(=Nc2c(C)n(C)n(-c3ccccc3)c2=O)C=C(C(C)CC)C1=O (stereo not given) | inactive: 4.41% |
| CC(C)(C)c1ccc(C(=O)Nc2cccc3ncccc23)cc1 | inconclusive: 56.5% |
| O=S(=O)(Nc1nc2ccccc2nc1NCc1ccco1)c1ccc(F)cc1 | inactive: 21.1% |
| CCCCn1c(=O)[nH]c2nc3cc(NC(C)=O)ccc3nc2c1=O | inconclusive: 45.6% |
| COc1ccc2c(COC(=O)c3n[nH]c4ccccc34)cc(=O)oc2c1 | inconclusive: 44.1% |
| Cc1cc(C(=O)OC(C)C(=O)NC2CCCCC2)c(C)o1 (stereo not given) | inactive: 3.67% |
| COc1ccc(-c2ccc(SCC(=O)N3CC(=O)Nc4ccccc43)nn2)cc1 | inactive: -4.15% |
| CCNc1ccc2noc3c2c1C(=O)c1ccccc1-3 | inconclusive: 139% |
| CN1CC=C2C(C#N)=C(N)C(C#N)(C#N)[C@H](c3cccs3)[C@H]2C1 | inconclusive: 95.1% |
| O=C1NC(=S)N/C1=C\c1ccccc1OCc1ccc(C(=O)O)cc1 | inactive: -6.96% |
| COc1cccc(C(=O)C(C#N)=C(SC)SC)c1 | inactive: 12.4% |
| O=C(NCc1ccc(OC(F)(F)F)cc1)c1cccc2c1C(=O)c1ccc(N3CCCC3)cc1S2(=O)=O | inconclusive: 76.9% |
| COC(=O)CC1=NN(c2ccc(OC)cc2)C(=O)/C1=C\c1ccc(Cl)cc1 | inactive: -4.74% |
| N#Cc1ccc(Oc2cccc3cccnc23)c([N+](=O)[O-])c1 | inconclusive: 33.3% |
| Cc1ccc(Nc2ccc(C(=O)O)cc2[N+](=O)[O-])cc1 | inactive: 17% |
| CCN(CC)S(=O)(=O)c1ccc(Nc2ccc(-c3ccc4c(c3)OCCO4)nn2)cc1 | inactive: -4.94% |
| CCN(CC)c1ccc(C=C2SC(=S)NC2=O)cc1 | inconclusive: 43.8% |
| Cc1cc2cc(CNC(=O)Nc3ccccc3)ccc2[nH]1 | inconclusive: 35.6% |
| COc1ccc(-n2c(=S)[nH]c3cc(C(=O)Nc4cc(C(N)=O)ccc4OC)ccc3c2=O)c(OC)c1 | inactive: -13.4% |
| COc1cc(/C=C/C(=O)O)cc(S(=O)(=O)Nc2cc(Cl)c(Cl)cc2Cl)c1OC | inconclusive: 70.2% |
| CN1C/C(=N\S(=O)(=O)c2ccccc2)N(C)C1=O | inactive: -4.44% |
| O=C1C(Cl)=C(N2CCCCC2)C(=O)C(Cl)=C1c1cnc(N2CCCCC2)s1 | inconclusive: 94.8% |

| Compound | inhibition |
| --- | --- |
| CCN(CC)c1ccc(/C=C(/C#N)c2nc3ccc(C)cc3[nH]2)c(OC(C)C)c1 | inconclusive: 139% |
| Nc1ccc2nc(-c3ccccc3)c(-c3ccccc3)nc2c1 | inconclusive: 76.9% |
| COc1ccc(/C=C2\C(=O)NC(=S)N2C(=O)c2ccc(C)cc2)cc1 | inconclusive: 60.1% |
| Cc1ccccc1C(=O)Nc1nnc(SC(C)C)s1 | inactive: -3.88% |
| CC1=CC(=C(C#N)c2nc3ccccc3s2)C=C(C)N1c1ccc(F)cc1 | inconclusive: 91.4% |
| CC(C)(C)OC(=O)NC(Cc1ccccc1)C(=O)N1CCC(C(=O)NCC(=O)Nc2ccc(F)cc2)CC1 (stereo not given) | inconclusive: 45.2% |
| COc1cc(/C=C2\S/C(=N/S(=O)(=O)c3ccc(C)cc3)NC2=O)c([N+](=O)[O-])cc1OC | inconclusive: 54% |
| Cc1ccc(O)c(C(=O)c2cc(C#N)c(=O)n(-c3nccs3)c2)c1 | inconclusive: 153% |
| CCC(C)(C)NC(=O)Cn1c(-c2ccccc2)cc(C(C)=O)c1C | inactive: 1.78% |
| COc1ccc(C2C(C#N)=C(N)SC(N)=C2C#N)cc1OC | inconclusive: 168% |
| CC(=O)Nc1sc2c(c1C(N)=O)CCN(Cc1ccccc1)C2 | inconclusive: 42.9% |
| CN(C)CCN(C)Cc1c2ccccc2c(CN(C)CCN(C)C)c2ccccc12 | inconclusive: 84.1% |
| COc1ccc(/C=C2\SC(=S)N(CC(=O)OCC(=O)Nc3ccc(C)cc3Cl)C2=O)cc1 | inconclusive: 31.8% |
| Cc1ccc(C(=O)O)cc1-c1ccc(/C=C2\SC(=O)N(CC(=O)Nc3ccccc3)C2=O)o1 | inconclusive: 42% |
| O=C1NC(=S)S/C1=C\c1cc2ccccc2nc1N1CCCCC1 | inconclusive: 63.2% |
| S=C(Nc1ccccc1Cl)NC1CCCCCC1 | inactive: -2.33% |
| COC(=O)CN1C(=O)S/C(=C/c2ccc(N3CCCCC3)o2)C1=O | inconclusive: 32.7% |
| O=C(CSc1ccc(Cl)cc1)c1ccco1 | inconclusive: 36.1% |
| Cc1n[nH]c(C)c1N1C(=O)c2cccc3c(N4CCCCCC4)ccc(c23)C1=O | inconclusive: 168% |
| Cc1oc2cc(O)ccc2c(=O)c1-c1nncn1-c1ccccc1 | inconclusive: 64.2% |
| Nc1cnccc1C(=O)O | inconclusive: 82.5% |
| CN1CCc2c(sc3c2C(=O)NC(c2cccc(OC(=O)c4cccs4)c2)N3)C1 (stereo not given) | inconclusive: 91.9% |
| N#CC1=C(N)C(C#N)(C#N)[C@H](c2ccoc2)[C@H]2CN(Cc3ccccc3)CC=C12 | inconclusive: 68.6% |
| O=C(NCc1cc(C(F)(F)F)ccc1Cl)c1cccc2c1C(=O)c1ccc(N3CCCCC3)cc1S2(=O)=O | inconclusive: 125% |
| Cc1ccc(C)n1-c1sccc1C(=O)O | inconclusive: 64.9% |
| CCOc1ccccc1C1C(C#N)=C(N)SC(N)=C1C#N | inconclusive: 60.5% |
| CC(C)CN(C(=O)CCCSc1nc2ccccc2[nH]1)c1c(N)n(Cc2ccccc2)c(=O)[nH]c1=O | inactive: 2.91% |
